{"source": "paper PMC6212790", "note": "Some of the results follow. At the low end of the ranking the order means little.", "data": [{"biological_target": "T1, GST-Rok (full length) (UniProt O34857)", "T1 sequence": "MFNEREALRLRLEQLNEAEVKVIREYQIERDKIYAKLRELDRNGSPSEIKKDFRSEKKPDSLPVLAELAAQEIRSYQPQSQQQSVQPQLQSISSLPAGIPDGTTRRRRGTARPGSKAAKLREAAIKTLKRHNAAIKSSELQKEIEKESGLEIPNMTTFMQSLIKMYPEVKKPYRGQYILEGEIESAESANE", "test": "protein binding microarray;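 also: rank score from −0.5 (least bound) to 0.5 (best bound)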", "conditions": "Rok is a gene silencer of Bacillus subtilis; high values mean tight binding; most listed sequences are background and not binding sites; double strand, one strand shown", "units": {"binding signal": "E-score"}, "values": [{"sequence": "GGGGCAAC", "binding signal": -0.257}, {"sequence": "ACATACCC", "binding signal": -0.0478}, {"sequence": "GACCCTGA", "binding signal": -0.187}, {"sequence": "ACAATCGG", "binding signal": 0.00195}, {"sequence": "CTCCGCTC", "binding signal": -0.179}, {"sequence": "CAGATAGA", "binding signal": 0.172}, {"sequence": "GCGACAGC", "binding signal": 0.0123}, {"sequence": "AAACGGAG", "binding signal": -0.139}, {"sequence": "CCGGGATA", "binding signal": -0.0223}, {"sequence": "ACGTAATG", "binding signal": 0.283}, {"sequence": "AGGACGGC", "binding signal": -0.382}, {"sequence": "GGGTCCAA", "binding signal": -0.437}, {"sequence": "CAATCAGA", "binding signal": -0.175}, {"sequence": "GTAACGGA", "binding signal": 0.131}, {"sequence": "AAAAAGCT", "binding signal": -0.0996}, {"sequence": "AGAGGTCC", "binding signal": -0.347}, {"sequence": "AAGTGGCG", "binding signal": -0.151}, {"sequence": "CTTGTTTC", "binding signal": 0.0903}, {"sequence": "ATTCATAC", "binding signal": 0.287}, {"sequence": "ACCGCGAA", "binding signal": -0.012}, {"sequence": "CACGACTC", "binding signal": -0.145}, {"sequence": "CGTGCACG", "binding signal": -0.0911}, {"sequence": "ATCGGATG", "binding signal": -0.135}, {"sequence": "ATCCCACC", "binding signal": -0.0759}, {"sequence": "ATACTGTC", "binding signal": 0.0898}, {"sequence": "CCGACCGA", "binding signal": -0.323}, {"sequence": "CTCGTCAA", "binding signal": -0.25}, {"sequence": "GGGACCCC", "binding signal": -0.469}, {"sequence": "ACTTTCCT", "binding signal": 0.0212}, {"sequence": "ACGCGCCC", "binding signal": -0.301}, {"sequence": "AATAAACT", "binding signal": 0.249}, {"sequence": "AGCGTGTG", "binding signal": -0.0505}, {"sequence": "TCGGAACA", "binding signal": -0.259}, {"sequence": "CTTTCCGC", "binding signal": 0.0623}, {"sequence": "ACAATGAA", "binding signal": 0.0945}, {"sequence": "ACAATTCG", "binding signal": 0.135}, {"sequence": "ATGCCTCG", "binding signal": -0.0672}, {"sequence": "ACGGAGGA", "binding signal": -0.33}, {"sequence": "CAGCAATA", "binding signal": 0.234}, {"sequence": "ACATAACT", "binding signal": 0.347}, {"sequence": "AGCTGTCA", "binding signal": -0.0404}, {"sequence": "GGACCAAA", "binding signal": -0.189}, {"sequence": "AAGTTGCG", "binding signal": 0.0909}, {"sequence": "AAAAGGGT", "binding signal": -0.042}, {"sequence": "ACCAGAAT", "binding signal": -0.0312}, {"sequence": "GCTACACC", "binding signal": -0.162}, {"sequence": "GGCTCGCA", "binding signal": -0.271}, {"sequence": "ACACTGTC", "binding signal": -0.0285}, {"sequence": "ATGATCAC", "binding signal": -0.0615}, {"sequence": "CGCGAGTA", "binding signal": 0.0486}, {"sequence": "GGCGTTGA", "binding signal": -0.0967}, {"sequence": "CGGGAACC", "binding signal": -0.317}, {"sequence": "ATATGCCC", "binding signal": -0.0425}, {"sequence": "CATCAATC", "binding signal": -0.0843}, {"sequence": "CTCCAGCA", "binding signal": -0.0281}, {"sequence": "AACCTTGG", "binding signal": -0.222}, {"sequence": "ATCGTTAC", "binding signal": -0.0072}, {"sequence": "ATTGTTGC", "binding signal": 0.08}, {"sequence": "GGGGAGCA", "binding signal": -0.364}, {"sequence": "GCGCAAAC", "binding signal": 0.121}, {"sequence": "AGCAAGAC", "binding signal": -0.158}, {"sequence": "AAAAGGAG", "binding signal": -0.188}, {"sequence": "ATACTATA", "binding signal": 0.396}, {"sequence": "GCAGCGTA", "binding signal": -0.0665}, {"sequence": "ACTGGCAG", "binding signal": -0.148}, {"sequence": "AGTACTAC", "binding signal": 0.389}, {"sequence": "AGCCCGAG", "binding signal": -0.276}, {"sequence": "GGTCTGAA", "binding signal": -0.116}, {"sequence": "AAGCCCAC", "binding signal": -0.234}, {"sequence": "ACCTACGT", "binding signal": 0.16}, {"sequence": "TCGCCCCA", "binding signal": -0.17}, {"sequence": "CGCTAGAC", "binding signal": -0.00499}, {"sequence": "CCATCCAC", "binding signal": -0.1}, {"sequence": "AACATATT", "binding signal": 0.323}, {"sequence": "CAATCCCC", "binding signal": -0.177}, {"sequence": "ACCACCAC", "binding signal": -0.186}, {"sequence": "GGATTTAC", "binding signal": 0.113}, {"sequence": "AAGGCTAG", "binding signal": -0.041}, {"sequence": "AGTAGCAA", "binding signal": 0.267}, {"sequence": "CGTCGAGC", "binding signal": -0.0815}, {"sequence": "CGTTTCTC", "binding signal": -0.117}, {"sequence": "GTCTCAAA", "binding signal": -0.0608}, {"sequence": "ACAGATGA", "binding signal": -0.0766}, {"sequence": "CGTATCAA", "binding signal": -0.00638}, {"sequence": "TCTAAACA", "binding signal": -0.0459}, {"sequence": "GGTATGGA", "binding signal": -0.0226}, {"sequence": "ATCCTTCG", "binding signal": -0.181}, {"sequence": "CAAATATA", "binding signal": 0.345}, {"sequence": "AGCATGGG", "binding signal": -0.198}, {"sequence": "CAGAGGAG", "binding signal": -0.287}, {"sequence": "AATGGGAT", "binding signal": 0.149}, {"sequence": "CAGGAGAG", "binding signal": -0.125}, {"sequence": "AAACTAAG", "binding signal": 0.345}, {"sequence": "GTGGCATA", "binding signal": -0.0853}, {"sequence": "AACTGAGA", "binding signal": -0.0736}, {"sequence": "ATCAAGCA", "binding signal": 0.199}, {"sequence": "GTCAAGGA", "binding signal": -0.181}, {"sequence": "CCGGTGGA", "binding signal": -0.31}, {"sequence": "CCTTCTAA", "binding signal": -0.0239}, {"sequence": "GAACGGAA", "binding signal": -0.217}, {"sequence": "CTAACCAC", "binding signal": -0.116}, {"sequence": "CACATTTA", "binding signal": 0.164}, {"sequence": "CAGACCTA", "binding signal": 0.0139}, {"sequence": "GACTACAA", "binding signal": 0.12}, {"sequence": "ATTTTTGC", "binding signal": 0.0142}, {"sequence": "GGGAGACC", "binding signal": -0.404}, {"sequence": "GGAGGCGA", "binding signal": -0.198}, {"sequence": "GCAAGGCC", "binding signal": -0.372}, {"sequence": "GGATATCA", "binding signal": -0.0323}, {"sequence": "CCGCGGCG", "binding signal": -0.19}, {"sequence": "CAGGTGCC", "binding signal": -0.304}, {"sequence": "AGGATGAT", "binding signal": -0.0933}, {"sequence": "AGTTGATC", "binding signal": 0.0409}, {"sequence": "AGTTAACA", "binding signal": 0.15}, {"sequence": "CGCCTATC", "binding signal": -0.0578}, {"sequence": "CGTAGGCA", "binding signal": -0.0851}, {"sequence": "CGTGATTC", "binding signal": 0.0837}, {"sequence": "AGTTGCAC", "binding signal": 0.0981}, {"sequence": "GGAATCCA", "binding signal": -0.0137}, {"sequence": "AGTCTCGC", "binding signal": -0.151}, {"sequence": "CATGCGTC", "binding signal": -0.075}, {"sequence": "AGATCTTC", "binding signal": -0.0496}, {"sequence": "AGGGGAGA", "binding signal": -0.312}, {"sequence": "AGCTTAGA", "binding signal": -0.0759}, {"sequence": "CAACGATA", "binding signal": 0.242}, {"sequence": "AACGGAGT", "binding signal": -0.129}, {"sequence": "AAGCTTTC", "binding signal": 0.0174}, {"sequence": "AGTTTTAC", "binding signal": 0.301}, {"sequence": "TATATTCA", "binding signal": 0.3}, {"sequence": "GAGGGCAA", "binding signal": -0.298}, {"sequence": "CGCTCCCC", "binding signal": -0.363}, {"sequence": "GGTCTACA", "binding signal": 0.0329}, {"sequence": "CTCTGACA", "binding signal": -0.196}, {"sequence": "ATGCTCCC", "binding signal": -0.196}, {"sequence": "CGTCCCAA", "binding signal": -0.371}, {"sequence": "GCCCCATA", "binding signal": -0.0377}, {"sequence": "TACGCAAA", "binding signal": 0.221}, {"sequence": "CAGAGCAC", "binding signal": -0.206}, {"sequence": "CGACCACG", "binding signal": -0.236}, {"sequence": "ACCTCTAA", "binding signal": -0.122}, {"sequence": "TCGGGCCA", "binding signal": -0.2}, {"sequence": "ATCACAGA", "binding signal": 0.0148}, {"sequence": "ACTACGTA", "binding signal": 0.246}, {"sequence": "ATTCGATA", "binding signal": 0.226}, {"sequence": "ACGATAAT", "binding signal": 0.153}, {"sequence": "AGTAAATC", "binding signal": 0.262}, {"sequence": "ACAGACAC", "binding signal": 0.0119}, {"sequence": "CGCTCGTC", "binding signal": -0.261}, {"sequence": "AACCGGAG", "binding signal": -0.133}, {"sequence": "CCTGTTAA", "binding signal": -0.1}, {"sequence": "CGAGCGCC", "binding signal": -0.405}, {"sequence": "CATGAGAA", "binding signal": 0.118}, {"sequence": "GTTGATAA", "binding signal": 0.176}, {"sequence": "ATTTATTA", "binding signal": 0.312}, {"sequence": "CACAAGAG", "binding signal": -0.0957}, {"sequence": "ATCTTGCC", "binding signal": -0.0891}, {"sequence": "GAATGCCC", "binding signal": -0.242}, {"sequence": "ACCCCAGA", "binding signal": -0.334}, {"sequence": "TCGATCCA", "binding signal": 0.00754}, {"sequence": "ATGACTAA", "binding signal": 0.248}, {"sequence": "AGTAAAAT", "binding signal": 0.311}, {"sequence": "GGTGAAAC", "binding signal": -0.124}, {"sequence": "CCCCTAAG", "binding signal": -0.324}, {"sequence": "CCCAGAAG", "binding signal": -0.223}, {"sequence": "GCGATCAC", "binding signal": -0.0328}, {"sequence": "GTACACTA", "binding signal": 0.23}, {"sequence": "ACCTTCAG", "binding signal": -0.119}, {"sequence": "TCCACGGA", "binding signal": -0.157}, {"sequence": "CAACCTGA", "binding signal": -0.0565}, {"sequence": "ACTTTATG", "binding signal": 0.0133}, {"sequence": "AATTCCGG", "binding signal": 0.0263}, {"sequence": "CTCTCTGA", "binding signal": -0.243}]}]}
